# This is one part of the list.
# B1: PX9961A-pdi-456-24-456 (Parabacteroides distasonis) (protein)
# chain: KTSSTQLPTIDAISSVADLTNAVNGVYEQQATEVGSYGAEFTLLADLRSGDFQSISTVNHAGPMYRYQTGKNDEMVYSFYKLFYNSLARLNNVLAAAENLEGADVDILKGELYAMRALYHFDLARVFAKLPSTTDMNDLGIVLSTEVYPTDYIGTRATLQQTYDQILKDIETALPLLSKDKQTGHINYWGALAIRARAYLYLEKNKEALADCKEIIASSPYKLYTRDEYIGAWDKEGTNEAIFEILVTPNYNAQRNSIGYFTHASGYGECAATESFLEELAKHPGDIRTELFAKETDNGYDGTYPQKYKGRDGQIYVNNPKVVRLSEVYLIAAEAALKAGDTSAAAGYMNTLRKNRIENYTDVASITLDDILLERRLELFTEGHTAWDAWRNGKSVNNKFVGEVKPGDYRTIMAIPIGEITVSRGQLIQNPGY
# Tests used:
# Test in all cases: glycan array binding signal (z-score within array); higher = stronger binding
# Conditions in all cases: glycan notation: IUPAC condensed, linker removed
# Gal6S(b1-4)Glc = target: Gal6S(b1-4)Glc
# Summary of the method: (§1)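 Columns mapping to the same glycan were averaged after glycan names were converted to IUPAC-condensed notation. The data come from 3228 arrays in the Consortium for Functional Glycomics database, limited to those with an available protein sequence. Binding is reported as a within-array Z-score averaged across arrays of one protein sequence and across linkers.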
# Gal6S(b1-4)Glc6S = target: Gal6S(b1-4)Glc6S
# Summary of the method: as §1
# Gal6S(b1-4)GlcNAc = target: Gal6S(b1-4)GlcNAc
# Summary of the method: as §1
# Gal6S(b1-4)GlcNAc6S = target: Gal6S(b1-4)GlcNAc6S
# Summary of the method: as §1
# GalNAc(a1-3)Gal = target: GalNAc(a1-3)Gal
# Summary of the method: as §1
# GalNAc(a1-3)GalNAc = target: GalNAc(a1-3)GalNAc
# Summary of the method: as §1
# [1] = target: GalNAc(a1-3)GalNAc(b1-3)Gal(a1-4)Gal(b1-4)Glc
# Summary of the method: as §1
# [2] = target: GalNAc(a1-3)GalNAc(b1-3)Gal(a1-4)Gal(b1-4)GlcNAc
# Summary of the method: as §1
# GalNAc(b1-3)Gal = target: GalNAc(b1-3)Gal
# Summary of the method: as §1
# [3] = target: GalNAc(b1-3)Gal(a1-4)Gal(b1-4)GlcNAc
# Summary of the method: as §1
# [4] = target: GalNAc(b1-3)Gal(a1-4)Gal(b1-4)GlcNAc(b1-3)Gal(b1-4)Glc
# Summary of the method: as §1
# [5] = target: GalNAc(b1-3)Gal(a1-6)Gal(b1-4)Glc
# Summary of the method: as §1
# GalNAc(b1-3)GalNAc = target: GalNAc(b1-3)GalNAc
# Summary of the method: as §1
# GalNAc(b1-3)GlcNAc = target: GalNAc(b1-3)GlcNAc
# Summary of the method: as §1
# GalNAc(b1-4)Gal(b1-4)Glc = target: GalNAc(b1-4)Gal(b1-4)Glc
# Summary of the method: as §1
# GalNAc(b1-4)GlcNAc = target: GalNAc(b1-4)GlcNAc
# Summary of the method: as §1
# [6] = target: GalNAc(b1-4)GlcNAc(b1-2)Man
# Summary of the method: as §1
# [7] = target: GalNAc(b1-4)GlcNAc(b1-2)Man(a1-3)[GalNAc(b1-4)GlcNAc(b1-2)Man(a1-6)]Man(b1-4)GlcNAc(b1-4)GlcNAc
# Summary of the method: as §1
# [8] = target: GalNAc(b1-4)GlcNAc(b1-3)GalNAc(b1-4)GlcNAc
# Summary of the method: as §1
# GalNAc(b1-4)GlcNAc6S = target: GalNAc(b1-4)GlcNAc6S
# Summary of the method: as §1
# GalNAc(b1-6)GalNAc = target: GalNAc(b1-6)GalNAc
# Summary of the method: as §1
# GalNAc3S(b1-4)GlcNAc = target: GalNAc3S(b1-4)GlcNAc
# Summary of the method: as §1
# GalNAc3S(b1-4)GlcNAc3S = target: GalNAc3S(b1-4)GlcNAc3S
# Summary of the method: as §1
# [9] = target: GalNAc3S(b1-4)[Fuc(a1-3)]GlcNAc
# Summary of the method: as §1
# GalNAc4S6S(b1-4)GlcNAc = target: GalNAc4S6S(b1-4)GlcNAc
# Summary of the method: as §1
# GalNAc6S(b1-4)GlcNAc = target: GalNAc6S(b1-4)GlcNAc
# Summary of the method: as §1
# Glc(a1-4)Glc = target: Glc(a1-4)Glc
# Summary of the method: as §1
# [10] = target: Glc(a1-4)Glc(a1-4)Glc(a1-4)Glc
# Summary of the method: as §1
# Glc(a1-6)Glc(a1-6)Glc = target: Glc(a1-6)Glc(a1-6)Glc
# Summary of the method: as §1
# [11] = target: Glc(a1-6)Glc(a1-6)Glc(a1-6)Glc
# Summary of the method: as §1
# Glc(b1-4)Glc = target: Glc(b1-4)Glc
# Summary of the method: as §1
# Glc(b1-6)Glc = target: Glc(b1-6)Glc
# Summary of the method: as §1
# GlcA(b1-3)Gal = target: GlcA(b1-3)Gal
# Summary of the method: as §1
# GlcA(b1-3)GlcNAc = target: GlcA(b1-3)GlcNAc
# Summary of the method: as §1
# GlcA(b1-6)Gal = target: GlcA(b1-6)Gal
# Summary of the method: as §1
# [12] = target: GlcA3S(b1-3)Gal(b1-4)GlcNAc(b1-2)Man
# Summary of the method: as §1
# [13] = target: GlcA3S(b1-3)Gal(b1-4)GlcNAc(b1-3)Gal(b1-4)Glc
# Summary of the method: as §1
# [14] = target: GlcNAc(a1-3)Gal(b1-4)GlcNAc
# Summary of the method: as §1
# [15] = target: GlcNAc(a1-4)Gal(b1-3)GlcNAc
# Summary of the method: as §1
# [16] = target: GlcNAc(a1-4)Gal(b1-4)GalNAc
# Summary of the method: as §1
# [17] = target: GlcNAc(a1-4)Gal(b1-4)GlcNAc
# Summary of the method: as §1
# [18] = target: GlcNAc(a1-4)Gal(b1-4)GlcNAc(b1-3)Gal(b1-4)Glc
# Summary of the method: as §1
# [19] = target: GlcNAc(a1-4)Gal(b1-4)GlcNAc(b1-3)Gal(b1-4)GlcNAc
# Summary of the method: as §1
# [20] = target: GlcNAc(a1-4)Gal(b1-4)GlcNAc(b1-3)Gal(b1-4)GlcNAc(b1-3)Gal(b1-4)GlcNAc
# Summary of the method: as §1
# [21] = target: GlcNAc(a1-4)Gal(b1-4)GlcNAc(b1-3)Gal(b1-4)[Fuc(a1-3)]GlcNAc(b1-3)Gal(b1-4)[Fuc(a1-3)]GlcNAc
# Summary of the method: as §1
binder,measurement,setting,value
B1,glycan array binding signal (z-score),Gal6S(b1-4)Glc,-0.351
same,glycan array binding signal (z-score),Gal6S(b1-4)Glc6S,0.008
same,glycan array binding signal (z-score),Gal6S(b1-4)GlcNAc,1.72
same,glycan array binding signal (z-score),Gal6S(b1-4)GlcNAc6S,0.056
same,glycan array binding signal (z-score),GalNAc(a1-3)Gal,3.31
same,glycan array binding signal (z-score),GalNAc(a1-3)GalNAc,-0.374
same,glycan array binding signal (z-score),[1],-0.433
same,glycan array binding signal (z-score),[2],-0.597
same,glycan array binding signal (z-score),GalNAc(b1-3)Gal,-0.363
same,glycan array binding signal (z-score),[3],0.389
same,glycan array binding signal (z-score),[4],0.012
same,glycan array binding signal (z-score),[5],0.144
same,glycan array binding signal (z-score),GalNAc(b1-3)GalNAc,-0.496
same,glycan array binding signal (z-score),GalNAc(b1-3)GlcNAc,-0.227
same,glycan array binding signal (z-score),GalNAc(b1-4)Gal(b1-4)Glc,0.003
same,glycan array binding signal (z-score),GalNAc(b1-4)GlcNAc,1.7
same,glycan array binding signal (z-score),[6],-0.275
same,glycan array binding signal (z-score),[7],0.266
same,glycan array binding signal (z-score),[8],0.949
same,glycan array binding signal (z-score),GalNAc(b1-4)GlcNAc6S,0.263
same,glycan array binding signal (z-score),GalNAc(b1-6)GalNAc,-0.186
same,glycan array binding signal (z-score),GalNAc3S(b1-4)GlcNAc,-0.381
same,glycan array binding signal (z-score),GalNAc3S(b1-4)GlcNAc3S,-0.352
same,glycan array binding signal (z-score),[9],-0.608
same,glycan array binding signal (z-score),GalNAc4S6S(b1-4)GlcNAc,-0.107
same,glycan array binding signal (z-score),GalNAc6S(b1-4)GlcNAc,-0.403
same,glycan array binding signal (z-score),Glc(a1-4)Glc,-0.435
same,glycan array binding signal (z-score),[10],0.037
same,glycan array binding signal (z-score),Glc(a1-6)Glc(a1-6)Glc,-0.09
same,glycan array binding signal (z-score),[11],-0.49
same,glycan array binding signal (z-score),Glc(b1-4)Glc,0.012
same,glycan array binding signal (z-score),Glc(b1-6)Glc,-0.218
same,glycan array binding signal (z-score),GlcA(b1-3)Gal,-0.413
same,glycan array binding signal (z-score),GlcA(b1-3)GlcNAc,-0.238
same,glycan array binding signal (z-score),GlcA(b1-6)Gal,-0.294
same,glycan array binding signal (z-score),[12],-0.048
same,glycan array binding signal (z-score),[13],0.449
same,glycan array binding signal (z-score),[14],-0.438
same,glycan array binding signal (z-score),[15],-0.059
same,glycan array binding signal (z-score),[16],0.337
same,glycan array binding signal (z-score),[17],-0.469
same,glycan array binding signal (z-score),[18],0.098
same,glycan array binding signal (z-score),[19],-0.127
same,glycan array binding signal (z-score),[20],0.299
same,glycan array binding signal (z-score),[21],1.26
